Among all 150,000 compounds or so, about 540 (0.36%) showed an effect of 50% or more. This is one part of the list.

This note sets out measurements from ChEMBL document CHEMBL4888484, “Replenishing the malaria drug discovery pipeline: Screening and hit evaluation of the MMV Hit Generation Library 1 (HGL1) against asexual blood stage Plasmodium falciparum ,using a nano luciferase reporter read-out” (2022).

For this assay, the system named is Plasmodium falciparum. Description: Primary screen in NF54 nanoGlo assay, in single point, at 2uM, 72h; a lower Z score goes with more inhibition. The class given is functional, Erythrocyte. The settings on record: timepoint 72 hour.
As a reminder, the % Inhibition is the change of the read-out against control, counted positive when it falls. Turning to `O=C(c1ccco1)N(Cc1cccc(OS(=O)(=O)c2ccc(F)cc2)c1)CC1CC1`, the “% Inhibition” value is on record as -8% and the Z score came out at 1.52.
With `Cc1ccc(-n2cc3c(N4CCC(C(=O)NCc5cc(F)cc(F)c5)CC4)ncnc3n2)cc1`, the “% Inhibition” value is listed as -5% and the Z score is given as 0.5.
On the same counts, the results for `COc1ccccc1NS(=O)(=O)c1cc(-c2nnc(-c3ccccc3)o2)ccc1OC` are -2% and 0.34.
In the case of `O=C(NC1CCCCCC1)C1CCN(C(=O)c2ncn3c2CO[C@H](c2ccc(F)cc2)C3)CC1`, the “% Inhibition” value is recorded as -15% and the Z score is reported as 1.37.
For `CCc1nccc(CN(C)CC[C@H](C)N2CCCC2)n1`, in that order: -10% and 1.79.
On the same counts, the results for `CCC#CCN1CCCn2nc(CN(C)C[C@H]3CC(=O)N(CC)C3)cc2C1` are -14% and 1.31.
On the same counts, the results for `Cc1ccc(C(=O)N2CC[C@H](N(C)C)[C@H](CCC(=O)O)C2)c(O)c1` are -9% and 1.19.
As for `Cc1cc(NC(=O)c2nccnc2C(=O)O)nn1Cc1ccc(F)cc1Cl`, the “% Inhibition” value is on record as -3% and the Z score was found to be 0.42.
In the case of `Cc1nn(C)cc1-c1cc(C(=O)Nc2ccc(-n3cc(Cl)cn3)cc2)no1`, the “% Inhibition” value is -1% and the Z score was 0.12.
`Cc1nsc(NC(=O)NC2CC3CC3C2)c1C#N` (stereo not given): the “% Inhibition” value came to 0% and the Z score stood at 0.04.
On the same counts, the results for `O=C(Nc1ccccn1)[C@H]1CCc2[nH]cnc2C1` are -5% and 0.86.
For `O=C(CCc1ccncc1)NCC1CCN(C(=O)c2cn[nH]c2)CC1`, in that order: 8% and -1.1.
With `Cc1cnc(C(=O)N2CC(S(=O)(=O)CC(C)C)C2)cn1`, the “% Inhibition” value was -12% and the Z score is 1.51.
On the same counts, the results for `COc1ccc(-c2nsc3c2NC(=O)C[C@@H]3c2cc3c(c(OC)c2OC)OCO3)cc1` are -8% and 0.92.
For `CC1=C(C(=O)N2CC3(CCOC3)C2)CCC(C)(C)C1`, in that order: -7% and 0.95.
Turning to `CC(C)c1cc(C(C)C)c(S(=O)(=O)n2nc(Nc3ccccc3)cc2Nc2ccccc2)c(C(C)C)c1`, the “% Inhibition” value is -8% and the Z score is listed as 1.19.
For `COc1ccc(N(CN2C(=O)C3CCCCC3C2=O)C(C)=O)cc1` (stereo not given), the “% Inhibition” value is given as -10% and the Z score came out at 1.41.
On the same counts, the results for `CC(C)(C[C@H]1CCCN(c2ncnc3c2CCCC3)C1)C(N)=O` are 1% and -0.16.
For `O=C(COC[C@H]1CCCCO1)N1CCc2[nH]nc(C3CCCC3)c2C1`, in that order: -1% and 0.19.
On the same counts, the results for `C=CCOc1c(CC=C)cc(CNCc2nncn2CCOC)cc1OCC` are -6% and 0.81.
As to `CS(=O)(=O)Nc1ccc(N2CCCCCCC2)c(C(=O)O)c1`, the “% Inhibition” value is reported as -16% and the Z score was 1.58.
On the same counts, the results for `Cc1ccc(S(=O)(=O)NC[C@H](O)c2ccc3c(c2)CCO3)s1` are -19% and 2.48.
For `CCC1(CC)C(NC(=O)c2c[nH]c(C#N)c2)C(C)C1OC` (stereo not given), in that order: -12% and 1.34.
For `CC(=O)[C@@H]1CCCCN1S(=O)(=O)CC(C)(C)C(C)(F)F`, in that order: -8% and 1.06.
Take `CC(=O)N1CCN(C(=O)N[C@@H](C)c2ccc(Cl)s2)CC1`: the “% Inhibition” value was 4% and the Z score was -0.62.
On the same counts, the results for `C=C(C)CN(CC)S(=O)(=O)N1CC(C)OC(C)C1` (stereo not given) are -14% and 1.88.
On the same counts, the results for `Cc1nc(C#N)n(CC(=O)N(C)Cc2cccs2)c1C` are 4% and -0.44.
On the same counts, the results for `Cc1ccc2nc(NC(=O)CCc3ccc(S(=O)(=O)N4CCCC4)cc3)sc2c1` are -14% and 1.46.
Turning to `CCn1cc(C(=O)Nc2cnn(C(C)C)c2)cn1`, the “% Inhibition” value was -5% and the Z score stood at 0.88.
For `CC(C)(C)CCNC(=O)CC[C@H]1CCCO1`, in that order: -10% and 1.94.
For `O=C(Cn1ccnc1)N1CCC[C@H](CCc2noc(-c3ccccn3)n2)C1`, in that order: 0% and 0.
Consider `CN=C(NC)NCc1ccccc1Cl`, for which the “% Inhibition” value was -6% and the Z score turned out to be 1.02.
Turning to `Cc1cccc2c1CCN(C(=O)[C@H]1CCn3c(cnc3C)C1)C2`, the “% Inhibition” value is recorded as -2% and the Z score is given as 0.34.
Take `COC(=O)c1ccc(NC(=O)C[C@@H]2N=C(O)N(CCc3ccccc3)C2=O)cc1`: the “% Inhibition” value is listed as 2% and the Z score is recorded as -0.2.
On the same counts, the results for `Cn1c(CCc2cccc(NC(=O)c3n[nH]c4c3CCCC4)c2)nc2ccccc21` are -11% and 1.26.
For `COc1cccc(CC(=O)N(C)[C@H]2CCOC(C)(C)C2)c1`, in that order: 0% and -0.01.
Take `C=CCCS(=O)(=O)NC1(c2cccc(OC)c2)CC1`: the “% Inhibition” value was -9% and the Z score is 1.62.
On the same counts, the results for `CC1(C)NC(=O)N(CC(=O)N2CCC[C@H]2c2nnc3ccccn23)C1=O` are -5% and 0.65.
On the same counts, the results for `Cc1cccc(OCCc2nnc([C@H](C)Oc3ccccc3F)o2)c1` are -6% and 1.09.
For the compound `Cc1cccn2cc(C(=O)N3CCn4ccnc4C3)cc12`, the “% Inhibition” value is on record as -2% and the Z score amounted to 0.27.
Consider `Cc1nn(C)cc1NC(=O)N1CCCC1CC(O)c1ccc(F)cc1` (stereo not given), for which the “% Inhibition” value worked out at 38% and the Z score is -3.23.
For `O=C(CS(=O)(=O)c1cccc2nsnc12)Nc1ccc(F)cc1`, in that order: -3% and 0.41.
Consider `Cn1c(NC(=O)C2CC23CCOC3)nc2cccnc21` (stereo not given), for which the “% Inhibition” value is recorded as -5% and the Z score came to 0.48.
For `COc1cn(C)c(C(=O)NCCC(c2ccccc2)c2ccccc2)cc1=O`, in that order: 5% and -0.66.
Take `CN(Cc1cc[nH]n1)C(=O)CCc1ccc(-c2ccc(Cl)cc2)[nH]1`: the “% Inhibition” value was -8% and the Z score is 0.74.
On the same counts, the results for `Cc1cccc(-n2nc3nc(NC4CCCC4)nc(-c4cccc(F)c4)c3c2N)c1` are 4% and -0.63.
For `CCC[C@H]1CCc2c([nH]c3ccccc3c2=O)O1`, in that order: -7% and 0.98.
For `O=C(O)c1ccn(-c2nc(-c3ccco3)cc(C(F)F)n2)n1`, in that order: -27% and 3.13.
`Cn1cc(S(=O)(=O)N2CCCCC2)cc1C(=O)NCCc1ccc2[nH]ncc2c1`: the “% Inhibition” value stood at 5% and the Z score is listed as -0.61.
As to `O=C(NCC1CC1c1ccccc1)c1nccn2ccnc12` (stereo not given), the “% Inhibition” value is -2% and the Z score is reported as 0.31.
On the same counts, the results for `Cc1cc(C(F)(F)F)c(C#N)c(N)c1C#N` are -15% and 1.92.
On the same counts, the results for `COc1cn(CC(=O)NC2CCCC2)c(CN2CCOCC2)cc1=O` are -8% and 0.84.
For `CC(C)(C)CN1CCC[C@@](O)(CN2CCOCC2)C1=O`, in that order: 0% and -0.07.
For `CCN(C(=O)Nc1cc(C)ccc1F)C1CCOCC1`, the “% Inhibition” value is -9% and the Z score came to 1.03.
`O=C(Cc1ccccc1)Nc1c(-c2ccc3c(c2)OCO3)n[nH]c1C1CC1`: the “% Inhibition” value was 2% and the Z score is reported as -0.42.
On the same counts, the results for `CNC(=O)c1ccccc1-c1cccc2ccsc12` are 5% and -0.75.
On to `COC[C@H]1CCCN(c2ccnc(C(N)=O)c2)CC1`, for which the “% Inhibition” value is on record as 0% and the Z score is reported as -0.06.
For `CC(C)(C)OC(=O)N1CCCC(C2CCCCN2C(=O)CO)C1` (stereo not given), in that order: -8% and 0.83.
On the same counts, the results for `CNc1cc([C@H]2C[C@@H](Nc3noc(C4CC4)n3)C2)nc(N)n1` are 1% and -0.18.
On the same counts, the results for `CCOc1cccc([C@H]2NC3(CCCC3)C(=O)N2C)c1O` are -17% and 1.45.
For the compound `COc1cc(C(=O)NCCc2noc(C(C)C)n2)ccn1`, the “% Inhibition” value worked out at 10% and the Z score was -1.36.
On the same counts, the results for `CC1C(c2ccccc2)NC(c2ccccc2)CC1(O)Cc1ccccc1Cl` (stereo not given) are -16% and 2.1.
On the same counts, the results for `CCOc1ccc(NC(=O)N[C@H]2CN(C(C)C)C[C@@H]2OC)cc1C#N` are -19% and 1.83.
On the same counts, the results for `Cc1ccc(OC2CN(S(=O)(=O)N3CCCC3)C2)cc1` are -7% and 1.06.
Consider `CC(C)N(C)CC(O)CN[C@H](C)c1ccccc1Cl` (stereo not given in full), for which the “% Inhibition” value is reported as -10% and the Z score is given as 1.28.
On the same counts, the results for `CCn1cnnc1CC1CCN(S(=O)(=O)c2c(C)nn(C)c2C)CC1` are -1% and 0.14.
Regarding `CCOC(=O)Nc1nn(CN2CCOc3ccc(OC)cc3C2)c(=S)s1`, the “% Inhibition” value is recorded as -7% and the Z score was 1.15.
For `COc1ccc(CC(=O)N2Cc3cncnc3C2)cc1`, in that order: -11% and 1.93.
On the same counts, the results for `COc1ccc(OC)c(NC(=O)Cn2c(C)cc(-c3nnc(C)o3)c2C)c1` are -6% and 1.09.
With `O=C(c1c[nH]nc1-c1ccccc1)N1CC[C@@]2(CCCN(CCc3ccccc3)C2)C1`, the “% Inhibition” value is listed as -1% and the Z score worked out at 0.09.
For `Cc1nc(C)c(S(=O)(=O)NCc2ocnc2C)s1`, in that order: 34% and -3.85.
As to `Cc1ccc(-n2cc(-c3ccc(Cl)cc3)nc2NC(=O)CN(Cc2ccccc2)C(=O)c2ccc(Cl)cc2Cl)cc1`, the “% Inhibition” value is recorded as -20% and the Z score worked out at 2.3.
On the same counts, the results for `CCOC(=O)c1ccc(NC(=O)N2CCC(n3nnc4cc(C(=O)N(C)C)ccc43)CC2)cc1` are 2% and -0.22.
For `CC(=O)Nc1nc(C(=O)N2CCOC(C)(C)[C@@H]2C)cs1`, in that order: -5% and 0.68.
On the same counts, the results for `c1cncc(NC2CCN(CCCOc3ccc4c(c3)OCO4)CC2)c1` are -10% and 1.29.
Take `c1cnc(N2CCC[C@H](n3ccnc3-c3ccc4ccccc4n3)C2)nc1`: the “% Inhibition” value is reported as -2% and the Z score was 0.23.
For `NCc1ccc(F)c(-c2cccc3ccnn23)c1`, the “% Inhibition” value was -5% and the Z score was found to be 0.45.
On the same counts, the results for `O=C1C[C@H](CNC(=O)NCC2CCCCCC2)CN1` are -9% and 1.57.
On the same counts, the results for `CC1(C)C2C(c3ccccc3)(c3ccccc3)N=NC21C` (stereo not given) are -3% and 0.4.
For `CC(C)(C)c1ccc([C@@H]2CCCN2C(=O)c2cc[n+]([O-])cc2)cc1`, in that order: -7% and 0.98.
In the case of `CC(C)c1nocc1C(=O)N1CCC(c2ccc3[nH]ccc3c2)CC1`, the “% Inhibition” value is -3% and the Z score came out at 0.63.
For `COc1ccc(N2CCN(Cc3nc(C(=O)Nc4ccccc4)co3)CC2)cc1`, in that order: -5% and 0.92.
On the same counts, the results for `CCOC(=O)N1CCN(C(=O)CCc2cc3ccc(C)cc3nc2O)CC1` are -7% and 1.23.
As to `CCn1ncc(NC(=O)Cn2ccc3cc(-c4cncnc4)ccc32)n1`, the “% Inhibition” value is -7% and the Z score worked out at 1.19.
On the same counts, the results for `Cc1ccc2c(OC[C@@H]3CNC(=O)C3)cc(C)nc2c1` are -8% and 1.2.
